To fix the notation:
B1: LINE1-mini (parent)
chain: GGCAGAGCUCAACACAGCGUGGCAAAGUGGCUGUGGCUAGACUGCC

The source gives no read counts; variants with many changes may rest on few reads.

This data set covers variants of B1. The data set is described as follows: self-cleavage, relative activity (ratio to wild type); higher = more cleavage; in vitro, sequencing; the parent is a self-cleaving ribozyme.
GGCAGCGCUCAACACAGGGUGGCAAAGUGGCUGUGACUAGACUGCC: the self-cleavage amounted to 0.06.
To GGCAGCGCUCAACACAGGGUGGCAAAGUGGCUGUGUCUAGACUGCC belongs 0.03; to GGCAGCGCUCAACACAGCGUGGCAAAGAGGCUGUGCCUAGACUGCC, 0.12; to GGCAGCUAUCAACACAGCGUGGCAAAGUGGCUGUGGCUAGACUGCC, 0.
Consider GGCAGCGCUCAACACAGCGUGGCAAAGUUGCUGUGGCUUGACUGCC, for which the self-cleavage turned out to be 0.95.
For the variant GGCAGGGCUCAGCACCGCGUGGCAUAGUGGCUGUCGCUAGACUGCC, the self-cleavage was 0.08.
The figure for GGCAGGGCUCAUCACAGCUUGGCAGAGUGGCUUUGGCUAGACCGCC is 0.02.
In the case of GGCAGGGCUCCACACAGCGUGUCAACGUGGCUGUGGCUAGACUGCC, the self-cleavage amounted to 0.
On to GGCAGGGCUCCACACAUCGUGGCAACGUGGCUGUGGCUAGACUGCC, for which the self-cleavage stood at 0.02.
To GGCAGGGCUCUACACAUCGUGGCAAAUUGGUAGUGGCUAGACUGCC belongs 0.
The figure for GGCAGGGCUCUACACUGCGUGGCAAAGUGCCUGUGGCUAGACUGCC is 0.03; for GGCAGCGCUCAACACAGCGUAGAAAAAUGGCUGUGGCUAGACUGCA it is 0.1.
Turning to GGCAGCGCACAACACAGUGAGCCAAAGUGGCUGUGGGUAAACUGCC, the self-cleavage came to 0.01.
The figure for GGCAGGGCUCAACUCAGCGUGGCAACUUUGCUGUGGCUAUACUGCC is 0.1; for GGCAGCGCUCAACACAGCGUGGCAAAGUGGCUGUGACUAGACUGUC it is 0.03; for GGCAGCGCUCAACACAGCGUGGCAAAGUAGCUGUGGCUGGGCUGCC it is 0.02.
To GGCAGCGCUCAACACAGCGUGGCAAAGUGGAUGUGGCUAGACUACC belongs 0.08; to GGCAGCGCCCAACACAGCGUGGCACAGUGGCUGUGGCGGGACUGCC, 0.01.
For the variant GGCAGCGCUCAACACAGCGUGGCAAAGUGGCAGUGGCUGCACCGCC, the self-cleavage is 0.03.
For GGCAGCACUCAACACAGCGUGGCAAAGUGGCUGUGGCGAGACGGCG, the self-cleavage stood at 0.03.
Take GGCAGCUCUCAACACAACGUGGCAAAGUGGCUGUGGUUAGACUGCC: the self-cleavage was found to be 0.06.
As to GGCAGCGCUCAACACAGCGUGGCAAAGUGGAUGUGGCUAGACUGUC, the self-cleavage was found to be 0.03.
In the case of GGCAGCGCUCAACACAUCGUGGCAAAGUGGCUGUGGCUAGACUUCC, the self-cleavage was 0.03.
Regarding GGCAGCUCUCAACACAGCGUGGCAAAGUGGCUGUGUCUAGACUGCC, the self-cleavage is 0.58.
In the case of GGCAGCGCUCAACACAGCGUGUCAAAGCGGCUGUGGCUAGACUCCC, the self-cleavage came out at 0.25.
To GGCAGCACUCAACAGAGCGUGGCAAAGUGGCUGUGGCUAGACUGCC belongs 0.23; to GGCAGCGCUCAACACAGCCUGGCAAAGUGGCUGUGUCUAGACUGCC, 0.16.
On to GGCAGCGCCCAACACAGCGUGGCACAGUGGCUGUGGCUAGACAGCC, for which the self-cleavage was found to be 0.02.
In the case of GGCAGCGCUCAACACACCGUGGCUACGUGGCUGUGGCUAGACUGCC, the self-cleavage amounted to 0.7.
Regarding GGCAGCACUCAACGCAGCGUGGCAAAGUGGCUGUGGCUAGACUGCC, the self-cleavage amounted to 0.12.
GGCAGCGCUCAACACAGCGUGGCAAAGUGGCUGUGGCUAGAACGCC: the self-cleavage amounted to 0.21.
To GGCAGGGCUCAGCACAACGUGGCAAAGUGGCUGUGGCUAGACAGCC belongs 0.02; to GGCAGCCCUCCACACAGCGUGGCAAAGUGGCUGUGGCUAGACUGGC, 0.03.
The figure for GGCAGCGCUCAACACAGCGUGGCAAAGUGGCUUUGGUUAGACUGCC is 0.06; for GGCAGCGCUCAACACAGCGUGAUAAAGUGGCUGUGGCUAGACGCCC it is 0.24.
Turning to GGCAGCCCUAAACAUAGCGUGGCAAAAUGGCUGUGGCUAGACUGCC, the self-cleavage worked out at 0.01.
For GGCAGCGCUCAACACAUCGUAGCAAAGUGGCUUUGGCUAGACUGCC, the self-cleavage stood at 0.11.
The figure for GGCAGGGCUCACCACAGCGUGCCAAAGUGGCUUUUGCUAGACUGCC is 0.04.
GGCAGCGCUCAACACAGCGCGGCUAAGUGGCUGUGGCUAGACUUCC: the self-cleavage came out at 0.23.
As for GGCAGCGCUCAACACAGCGUUUUAAAGUGGCUGUGGCUAGACUGCC, the self-cleavage was 0.87.
Regarding GGCAGCGCCCAACAGAGCGUGGCAAAGGGACUGUGGCUAGACUGCG, the self-cleavage came out at 0.01.
For GGCAGCUCUCAACACAGCGUGGCAAAGAGGCUGUGGCUAGACUGCC, the self-cleavage is 0.09.
Consider GGCAGCGCUCAACACAGCGUGGUAAAGUGGCUGUGGGUAGACUGCA, for which the self-cleavage was 0.03.
To GGCAGCGCUCAACACAGCGGGGCAAAGUGGCUGUGGCCAUACUGCC belongs 0.01; to GGCAGCGCUCAACACAGCAUGGCAAAGUGGCUAUGCCUAGACUGCC, 0.11; to GGCAGCGCUCAACACAGCGUGGCAAAGUGACUUUGGCUAGACUGUC, 0.06.
The figure for GGCAGCGCUCAACACAGCGUAGAAAAGUGGUUGUGGCUAAACAGCU is 0.18; for GGCAGCACUCAACACAGCGUGGCAAAGUGGUUGUGGCUAGACUGCC it is 0.08; for GGCAGCGCUCAACACACCGUGACAAAGUGGCUGUGGCUGGACUGCC it is 0.03.
To GGCAGCACCCCACACAGCGUGGCAAAGUGGGUGUGGCUAGACUGCC belongs 0.02.
For the variant GGCAGCGCUCAACACAGCGUGGCAAAAUGGAUGUGGCUAGACAGCC, the self-cleavage came to 0.
The figure for GGCAGCGCACAACACAGCGUGGCAAAGUGGCUGUGGCUAUACUGCC is 0.07; for GGCAGCGCUCAACACAGCGUGUCCAAGUGGUUGUGGCCAGACUGCC it is 0.06.
Turning to GGCAGCGCUCAACACAGCGUGGCAAAAUCGCUGUGUCAACACUGCC, the self-cleavage came to 0.01.
For GGCAGCGCUCAACACAGCUUGGCAAAGUCGCAGUGGCUAGACUGCC, the self-cleavage amounted to 0.09.
The figure for GGCAGCGCUCAACACAGCGUGGAAAAGUGGCUGUUGCUAGACUGCC is 0.09.

These data come from the RNAGym collection of RNA variant scans (doi:10.7554/elife.90254).
